Measured values from PubChem BioAssay (NCI).
Where “and” joins values, the source holds several entries; their conditions need not be identical. Identical values can stand only once.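 Each compound was tested at five concentrations against cells in 96-well plates for 48 hours. Abbreviation: GI50, concentration required for 50% inhibition of growth. TGI is the concentration that stops growth completely.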

Each compound was assayed on NCI-H322M lung (assay: DTP human tumour cell line panel, 48 h).

SMILES | GI50 [µM] | TGI
O=C(N/N=C/c1ccc([N+](=O)[O-])cc1)c1ccc2nc(-c3ccc(Cl)cc3)[nH]c2c1 | 5.04 | 26.4 µM
C=C1C(=O)O[C@H]2[C@H]1CC/C(COC(=O)CSCC(=O)OC/C1=C/CC[C@@]3(C)O[C@H]3[C@H]3OC(=O)C(=C)[C@@H]3CC1)=C\CC[C@@]1(C)O[C@@H]21 | 10.7 | 22.6 µM
N#CCc1ncc(-c2ccc(C(F)(F)F)cc2)c(NC2CCCCCC2)n1 | > 10 | > 10 µM
COc1ccc2c(c1)n([O-])c(C#N)c(N1CCN(c3ccc([N+](=O)[O-])cc3)CC1)[n+]2=O |  | > 100 µM
O=c1cc(-c2ccccc2)[nH]n1-c1nc2ccccc2[nH]1 | 8.02 | > 100 µM
O=c1[nH]nc(-c2ccccc2)n1/N=C/c1c(O)ccc2ccccc12 |  | > 100 µM
Oc1[nH]c2ccccc2c1N=Nc1nc(-c2ccc(Cl)c(Cl)c2)cs1 |  | > 100 µM
O=C1CN(C(=O)c2ccccc2)Cc2[nH]c3ccccc3c21 |  | > 100 µM
O=C(CC(=O)N1N=C(N2c3ccccc3Sc3ccccc32)CC1c1ccccc1)Nc1ccc(Cl)cc1 (stereo not drawn) |  | > 100 µM
O=C1C(=O)N(c2ccc(Cl)cc2Cl)C(=O)C(=O)C1c1nc2ccccc2o1 |  | > 100 µM
CC#CC1/C(=C\C(=O)OC)CCCC1O (stereo not drawn) |  | > 100 µM
O=C(O)c1cc2cc(OCc3ccccc3)c(OCc3ccccc3)cc2[nH]1 | 23 | 57.1 µM
Fc1ccc(C2SCc3nc4ccccc4n32)cc1 (stereo not drawn) |  | > 100 µM
CC(C)NC(=O)OCc1c(COC(=O)NC(C)C)c(-c2ccc(Cl)cc2)n2c1CCC2 | 3.91 | 22.1 µM
C=C1C(=O)OCC2C(C(=O)O)=CC3C(C)C(C)=CC123 (stereo not drawn) |  | 39 µM
C=C(CC[C@@H](C(=O)O)[C@H]1[C@H](O)C[C@@]2(C)C3=CC[C@@H](C(=C)C)[C@](C)(CCC(=O)O)C3=CC[C@]12C)C(C)C |  | 32.5 µM
Cc1cc(NS(=O)(=O)c2ccc(NC(=O)c3cccc4c(Nc5ccc(S(=O)(=O)N=C(N)N)cc5)c5ccccc5nc34)cc2)no1 |  | > 100 µM
COc1ccc2nc3cc(Cl)ccc3c(NCCCNCCC(C)O)c2c1 (stereo not drawn) | 0.236 | 1.44 µM
COc1cccc2c1C(=O)c1c(O)c3c(c(O)c1C2=O)C[C@@](O)(C(=O)CO)C[C@@H]3OC1C[C@H](N)[C@H](O)[C@H](C)O1 (stereo partly drawn) | 0.286 | 4.28 µM
O=C1Nc2cc([N+](=O)[O-])ccc2NC1/C(=N\Nc1ccccc1)C(O)c1cccc([N+](=O)[O-])c1 (stereo not drawn) |  | > 100 µM
COC(=O)/C=C/c1cc(O)c2c(c1)[C@H](C(=O)OC)[C@@H](c1ccc(O)c(O)c1)O2 |  | > 100 µM
Cc1cn(CC2=NCC(C)(C)N2)c(=O)[nH]c1=O |  | > 100 µM
COc1ccccc1NC(=O)C1=C(C)NC(C)=C(C(=O)Nc2ccccc2OC)C1c1ccc(C)cc1 |  | > 100 µM

SMILES | GI50 [µM] | TGI
COc1ccccc1C#Cc1ccccc1C#CCCCCCC#Cc1ccccc1C#Cc1ccccc1OC | 86.7 | > 100 µM
CN(NC(=O)CCCl)C1=NCCCCN1 |  | > 100 µM
CCOC(=O)/C=C(/C(=O)OCC)n1cc(C)c(=O)n(Cc2cn(COCCOC(C)=O)nn2)c1=O |  | > 100 µM
c1ccc2c(c1)[nH]c1cnc3c4cccnc4[nH]c3c12 |  | 30.7 µM
NC(N)=NNC(=O)CCCCCCCC(=O)NN=C(N)N |  | > 100 µM
NC(=O)c1ccc2c(c1)S(=O)(=O)c1ccccc1C2=O |  | > 100 µM
COc1cc2c[n+](C)c3c4ccccc4ccc3c2cc1OC (tested in a mixture with another compound) |  | 41 µM
Cc1sc(/N=C/c2c[nH]c3ccccc23)c(C#N)c1C |  | > 100 µM
O=c1[nH]cnc2[nH]ncc12 | 316 | > 5000 µM
CC(=O)CCCCO |  | > 100 µM
CNC(=O)c1cc(NC(=O)N(CCC#N)CCN(C(=O)N[C@@H](Cc2ccccc2)C(=O)N[C@@H](CC(C)C)C(=O)NC)c2ccccc2)ccc1OC |  | > 100 µM
O=C1Cc2c([nH]c3ccc(Br)cc23)-c2ccccc2N1 |  | > 100 µM
C(=C\c1ccccc1)/C=N/c1nc2cc3sc(/N=C/C=C/c4ccccc4)nc3cc2s1 |  | > 100 µM
C=CCC1(O)c2cccc(NCCO)c2C(=O)c2c(NCCO)cccc21 | > 100 | > 100 µM
CSc1ccc2c3c(n(C[C@H](O)CO)c(=O)c2c1)-c1ccccc1C3=O | 5.11 | > 100 µM
O=C1c2c(n(Cc3ccccc3)c(=O)n2Cc2ccccc2)C(=O)N1Cc1ccccc1 |  | > 100 µM
CN(C)CCSC(=Nc1ccccc1)N1CCCCC1 |  | 66.3 µM
CC(C)c1ccc(/C=C2\CSCC3=C2NC(=S)NC3c2ccc(C(C)C)cc2)cc1 (stereo not drawn) |  | > 100 µM
O=C(NC1CCN(Cc2ccccc2)CC1)c1cc2nc(-c3ccc(Cl)s3)cc(C(F)(F)F)n2n1 | > 100 | > 100 µM
COc1cc2c(cc1O)CC13CCC(=O)N1CCc1cc(OC)c(O)c-2c13 (stereo not drawn) |  | > 6.81 µM
CC(=O)OCC1OC(OC2CC3C(C)(C)C(O)CC[C@]3(C)C3CCC45CC4(CC[C@H]5C(C)CC(O)C4OC4(C)C)[C@]23C)C(O)C(O)C1O (stereo partly drawn) | 13.2 | 13.6 µM and 26.3 µM
CCOC(=O)/C=C(\C(=O)OCC)n1ccc(N)nc1=O |  | > 100 µM
CC[C@H](C)[C@H]1NC(=O)[C@@H](NC(=O)[C@@H](CC(C)C)N(C)CC2CCCN2C(=O)C(C)=O)[C@@H](C)OC(=O)[C@H](Cc2ccc(OC)cc2)N(C)C(=O)C2CCCN2C(=O)[C@H](CC(C)C)NC(=O)[C@@H](C)C(=O)[C@H](C(C)C)OC(=O)C[C@@H]1O (stereo partly drawn) |  | 0.0154 µM

SMILES | GI50 [µM] | TGI
CN(C)Cc1cc(O)c(O)c(CN(C)C)c1 |  | > 100 µM
c1ccc2c(c1)CCc1cc3cc4c(nc3nc1-2)-c1ccccc1CC4 |  | > 100 µM
CC(=O)OC1CC2(O)C3CCC4CC(O)CCC4(C)C3CCC2(C)C1C1=CC(=O)OC1 (stereo not drawn) |  | 0.692 µM
COC(=O)/C=C(/C(=O)OC)c1c(C)c(C)c2c(C)cc(C)cc(C)c1-2 |  | > 100 µM
CCCCCCCCCCCCSC(=N)N | 19.4 | 34.2 µM
Cc1nc2ccc(S(=O)(=O)O)cc2c(=O)n1-c1ccc(C(=O)NN2C(=O)C(Cl)C2c2ccccc2O)cc1 (stereo not drawn) |  | > 100 µM
c1ccc2c(c1)nc(NC1CCCC1)c1[nH]c(C3CCCC3)nc12 |  | > 100 µM
CCN1c2ccccc2C(Cl)(c2ccc(N(C)C)cc2)c2ccccc21 | 77.9 | > 100 µM
CN(C)CCNC(=O)c1cccc2nc3c(nc12)-c1ccccc1C3=O |  | 41 µM
CO[C@@H]1/C=C(C)/C=C/[C@@H](C)/C=C(\C)C(=O)OC(/C(C)=C/C=C(\C)CNC(=O)[C@H](CO)NC=O)[C@@H](C)/C=C/C=C/[C@H](OC)CC/C=C(C)/C=C/C1 (stereo partly drawn) | < 0.005 | 0.21 µM
O=C(N/N=C/c1ccccc1O)C(=O)Nc1ccc(F)cc1 | 2.25 | 55.9 µM
COC(=O)n1c(=O)n(-c2ccccc2)c(=O)n1C(=O)OC |  | > 100 µM
C1OC1CO[C@@H]1CO[C@H]2[C@@H]1OC[C@H]2OCC1CO1 (stereo partly drawn) |  | > 100 µM
Cc1ccc(SC2=CC(=O)c3nc4ccccc4c4ccnc2c34)cc1 | > 74.9 | > 100 µM
Cc1ccc(C(C2C(=O)N(C)C(=O)N(C)C2=O)C(F)(F)C(=O)N(C)C)cc1 (stereo not drawn) |  | > 100 µM
O=c1cc(N2CCCC2)[nH]c(=O)n1-c1cccc(C(F)(F)F)c1 |  | > 100 µM
O=C(OCc1ccccc1)C1(N2CN(C3(C(=O)OCc4ccccc4)CCCC3)CN(C3(C(=O)OCc4ccccc4)CCCC3)C2)CCCC1 |  | > 10 µM
c1cn2cc(-c3ccc4cn[nH]c4c3)nc(Nc3ccc(N4CCOCC4)cc3)c2n1 | 15.3 | 43.1 µM
C=CC1CC12C(=O)C1OC2(C)C2C(=O)c3c(O)ccc(O)c3C(=O)C12 (stereo not drawn) | 6.52 | 18.6 µM
CCOC(=O)/C=C/C(C(=O)/C=C/c1ccc(O)c(OC)c1)=C(O)\C=C\c1ccc(O)c(OC)c1 | 8.42 | > 100 µM
O=C(Nc1ccccc1O)c1ccc(Oc2cccc(C(=O)Nc3ccccc3O)c2)cc1 | 3.15 | 13.8 µM
S=C1Nc2ccc(Cl)cc2C2(c3ccccc3)N3CCN=C3NN12 (stereo not drawn) | > 100 | > 100 µM
COc1ccc(/C=C\c2cc(OC)c(OC)c(OC)c2)cc1OC(=O)CCC(=O)O |  | > 100 µM

SMILES | GI50 [µM] | TGI
NCCNc1cccc2ccccc12 |  | > 100 µM
NC(=S)Nc1[nH]c(=S)nc2c1SC1=N/C(=C\c3ccco3)C(=O)N12 |  | > 100 µM
N#Cc1c(N2CCCC2)ncn(Cc2ccccc2)c1=O |  | > 100 µM
c1ccc(-c2nc(-c3ccccc3)c(-c3ccccc3)[nH]2)cc1 |  | > 100 µM
CCOC(=O)C(=Cc1ccc(C(=O)OC)cc1)C(=O)OCC |  | 21 µM
Cc1ccc(N2CCc3c(C)c(C#N)c4nc5ccccc5n4c32)cc1 |  | > 100 µM
O=c1c2cc(I)ccc2nc(Sc2ncccc2[N+](=O)[O-])n1Cc1ccccc1 |  | > 100 µM
Cc1cccc(C2=NC(C)(C)C(C)(C)N=C2c2cccc(C)n2)n1 |  | > 100 µM
COc1ccc(/C=C/C(=O)Oc2cc(O)cc(O)c2)cc1 |  | > 100 µM
CC(C)(C)C(=O)ON1N=NC2C3CC(OCc4ccccc4)(OCc4ccccc4)C(O3)C21 (stereo not drawn) |  | > 100 µM
Cc1cc(S(=O)(=O)O)c(NC(=O)C(=O)C2C=CCS2(=O)=O)cc1Cl (stereo not drawn) |  | > 100 µM
COc1ccc2c(c1)C(=O)/C(=C/c1ncc([N+](=O)[O-])n1C)O2 | 2.9 | 13.5 µM
CO[C@@H]1CC(=O)C2(CC(=O)O[C@@H]2/C=C(\C)CCC=C(C)C)C[C@@H]1O (stereo partly drawn) | 1.05 | 2.91 µM
COC(OC)C1OC(CO)C(n2ccc(N)nc2=O)C1O (stereo not drawn) |  | > 100 µM
Cc1cc(C)c(O)c(CN(C)Cc2cc(Cl)cc(Cl)c2O)c1 | 1.9 | 
C=C1C(=O)O[C@H]2[C@H]1CC/C(COC(=O)NCCc1c[nH]c3ccc(OC)cc13)=C\CC[C@@]1(C)O[C@@H]21 | 11.6 | 23.7 µM
Cc1c2c[n+](C(C)C)ccc2c(C)c2c1[nH]c1ccccc12 | 3.36 | 39.7 µM
Cc1cc(Cc2cc(C)cc(C(C)(C)C)c2O)c(O)c(C(C)(C)C)c1 | 9.57 | 21.9 µM
CCCCCCCCCCCCCCCCCCNc1ccn(C2OC(COP(=O)(O)OCC3OC(n4cc(C)c(=O)[nH]c4=O)CC3N=[N+]=[N-])C(O)C2O)c(=O)n1 (stereo not drawn) |  | 71.4 µM
Cc1cccc(NC(=O)C(=O)C(C(=O)c2ccccc2F)C2OC(=O)c3ccccc32)c1Cl (stereo not drawn) |  | 79.3 µM
CN1CCN(Cc2ccc(NC(=O)c3ccc(C#Cc4c(N)ncc5ccc(F)cc45)cc3)cc2C(F)(F)F)CC1 | 0.867 | 1.72 µM
COc1ccccc1/C=N\N=C(N/N=C/c1ccccc1OC)N/N=C/c1ccccc1OC | 2.62 | > 100 µM
O=S1(=O)c2ccccc2C(=NO)c2ccccc21 |  | > 100 µM
